Measured values from PubChem BioAssay AID1347417 (National Center for Advancing Translational Sciences (NCATS), 2020).
Hit rate of the full screen: of about 120,000 compounds, about 5,300 (4.4%) were called active. Inconclusive means that the source gave no clear call. Such entries were picked first, then a sample of the others. Calls follow the shape of the dose curve; as a rule, active = well fitted inhibition curve with a large enough effect; inconclusive = small, poorly fitted or top-dose-only effect; inactive = no such curve, though single readings can be large or run the other way. Where the call is inconclusive, the potency comes from a doubtful curve fit.
Potency is read from the fitted curve at half-maximal effect; tags tell the direction and shape of the fitted curve.

Test: qHTS Primary assay for Inhibitors of Plasmodium falciparum Dd2 growth in vitro; also: nearly all actives have a fitted effect of over 65% in size;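 as to activity, negative = inhibition: plate controls were DMSO vehicle for no effect and reference drug for full effect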
Settings: P. falciparum Dd2 growth, SYBR Green, 72 h; activity, negative = inhibition: at 28.9 µM (top of the series) unless noted; series mostly up to 28.9 µM
Outline: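 Readout: SYBR Green fluorescence, 485 nm excitation, 535 nm emission, after ~16 h lysis at 37C. Before that, Dd2-infected red cells (2.5% hematocrit) grew 72 h with compound, 29 uM top final concentration.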
For `Cc1cc(C)c2c(CC(=O)N[C@@H]3CCOC[C@H]3Oc3ccccn3)coc2c1`, the Potency was “inactive”. With `COc1ccc(/C=C/c2ccc3c(c2)C(=O)N2CC[C@H](NC(=O)CCC(=O)O)[C@H]2C(=O)N3)cc1` the Potency was “inactive”. In the case of `CC(=O)c1ccc(N2CCN(C(=O)CCC(=O)Nc3ccc4nc(N5CCCCC5)cc(C)c4c3)CC2)cc1`, the Potency is reported as inconclusive: 17.8 µM [inhibitor, single point]. For `CCOC(=O)C1(Cc2ccccc2F)CCCN(C(=O)c2ccc(OC)nc2OC)C1` (configuration not stated), the Potency was “inactive”. For `CC1=C(C(=O)Nc2ccc(C)cc2C)C(c2ccc([N+](=O)[O-])cc2)n2ncc(C(=O)Nc3ccc(F)cc3)c2N1` (configuration not stated), the Potency was active: 1 µM. For `CS(=O)(=O)c1ccc(CN2CCC[C@H]2c2nc(-c3ccc(N4CCC(C(N)=O)CC4)nc3)no2)cc1`, the Potency was inconclusive: 10 µM [inhibitor, single point]. For `O=C(NC[C@H]1C[C@@H]2CCN1C[C@@H]2CN1CCC(Cc2ccccc2)CC1)Nc1ccsc1`, the Potency was inconclusive: 2 µM [inhibitor, partial curve, poor fit]. For `Cc1ccccc1Cc1c(C)nc2nc(SCC(=O)N(C)c3ccccc3)nn2c1C`, the Potency was inconclusive: 1 µM [inhibitor, partial curve, poor fit]. For `Cc1ccc(-c2nnc([C@H]3CCN(c4ncccn4)C3)o2)cc1`, the Potency was “inactive”. With `COc1ccccc1CCC(=O)N1CCN(c2cc(-c3ccc(Cl)cc3)[nH]n2)CC1` the Potency was inconclusive: 1.26 µM [inhibitor, partial curve, poor fit]. In the case of `CCN(C(=O)c1cccc(F)c1F)[C@@H]1CCN(c2ncccc2C#N)C[C@H]1O`, the Potency is reported as “inactive”. For `COc1cc(C(=O)NC2CCN(c3cc(-c4ccccc4)[nH]n3)CC2)cc(OC)c1OC`, the Potency was inconclusive: 0.501 µM [inhibitor, full curve, poor fit]. For `O=C(C1CCC1)N1CCC2(CC1)CC(N(Cc1ccccc1)C1CC1)CCO2` (configuration not stated), the Potency was inconclusive: 1.58 µM [inhibitor, full curve, poor fit]. For `O=C(CN1C(=O)COc2ccc(Cl)cc21)Nc1cccc(F)c1`, the Potency was inconclusive: 10 µM [inhibitor, single point]. For `COc1ccc(-c2noc([C@@H]3C[C@H](NS(=O)(=O)c4ccc(F)cc4)CN3C)n2)cc1`, the Potency was inconclusive: 5.01 µM [inhibitor, partial curve, poor fit]. For `NC1CCCCN(C(=O)CCN2CCc3ccccc32)C1` (configuration not stated), the Potency was inconclusive: 17.8 µM [inhibitor, single point]. With `O=C1Nc2ccccc2NC12CCN(Cc1c(F)cccc1Cl)CC2` the Potency was inconclusive: 5.01 µM [inhibitor, partial curve, poor fit]. In the case of `COc1ccc(-c2cc(C(=O)N3CCOCC3)c3c(C)nn(-c4ccccc4)c3n2)cc1`, the Potency is reported as inconclusive: 7.94 µM [inhibitor, partial curve, poor fit]. With `COc1ccccc1NC(=O)CSc1nnc(NC(=O)Nc2ccc(C)cc2)s1` the Potency was inconclusive: 10 µM [inhibitor, single point]. With `Cc1ccc(S(=O)(=O)N2CCCc3cc(NS(=O)(=O)c4cccc(Cl)c4)ccc32)cc1` the Potency was inconclusive: 10 µM [inhibitor, partial curve, poor fit]. For `CCCCN1C(=O)c2[nH]nc(-c3ccccc3O)c2C1c1ccc(OCc2ccccc2)cc1` (configuration not stated), the Potency was active: 1.41 µM. In the case of `Fc1ccc(N2CCCN(CC3[C@H]4CNC[C@@H]34)CC2)cc1` (some centres not stated), the Potency is reported as inconclusive: 2 µM [inhibitor, full curve, poor fit]. In the case of `Cc1ccc(CC(=O)Nc2ccc3c(c2)N(C)C(=O)c2ccccc2S3)cc1`, the Potency is reported as inconclusive: 11.2 µM [inhibitor, single point]. In the case of `CC(=O)Nc1ccc(S(=O)(=O)N[C@H]2CO[C@H]3[C@@H]2OC[C@@H]3n2nnnc2-c2ccc(N(C)C)cc2)cc1`, the Potency is reported as inconclusive: 12.6 µM [inhibitor, partial curve, poor fit]. In the case of `Cc1noc(C2CC3(CCN(C(=O)c4cccs4)CC3)CN2C)n1` (configuration not stated), the Potency is reported as inconclusive: 10 µM [inhibitor, single point]. In the case of `O=C1NC(=NC2CCCCC2)C2(CCN(Cc3ccsc3)C2)N1c1cccnc1` (configuration not stated), the Potency is reported as inconclusive: 10 µM [inhibitor, single point]. With `Cc1ccccc1C(=O)Nc1sc2c(c1C(=O)N1CCCCC1)CCC(C)C2` (configuration not stated) the Potency was inconclusive: 17.8 µM [inhibitor, single point]. In the case of `O=C(C1CCOCC1)N1CCC2(CC1)CC(N1CCCC1)CCO2` (configuration not stated), the Potency is reported as “inactive”. In the case of `COc1cccc(C(=O)N2c3ccc(C)cc3C(C)(c3ccccc3)CC2(C)C)c1` (configuration not stated), the Potency is reported as inconclusive: 10 µM [inhibitor, single point]. In the case of `COc1ccc(-c2cn3nc(N4CCCC(C(=O)Nc5cccc(OC)c5)C4)sc3n2)cc1` (configuration not stated), the Potency is reported as inconclusive: 17.8 µM [inhibitor, single point]. For `O=C1NC2(CCN(S(=O)(=O)c3cccs3)CC2)Oc2ccccc21`, the Potency was inconclusive: 1.78 µM [inhibitor, partial curve, poor fit]. In the case of `COc1ccc(CNC(=O)C[C@@H]2c3nc(NC(=O)c4cccs4)sc3C[C@@H]3[C@](C)(CO)[C@H](O)CC[C@]32C)cc1`, the Potency is reported as active: 3.98 µM. For `Cc1ccc(Nc2sc(C(=O)c3ccccc3)c(N)c2C(=O)Nc2ccc(Cl)cc2)cc1`, the Potency was inconclusive: 14.1 µM [inhibitor, single point]. For `CC(C)CN(Cc1cccnc1)C1CN(C(=O)COc2ccc(F)cc2)C1`, the Potency was inconclusive: 10 µM [inhibitor, single point]. For `CC(C)c1ccc(NC(=O)CSc2nc(=O)n(Cc3ccccn3)c3c2CCC3)cc1`, the Potency was inconclusive: 0.0891 µM [inhibitor, full curve, poor fit]. For `CCCn1c(SCc2nc(-c3ccccc3OCC)no2)nnc1-c1ccc(Cl)cc1`, the Potency was inconclusive: 12.6 µM [inhibitor, single point]. For `Nc1nc(C2CC(N)C2)cc(N2CC(c3nc4ccccc4[nH]3)C2)n1` (configuration not stated), the Potency was inconclusive: 17.8 µM [inhibitor, single point]. With `Cc1ccsc1-c1nc(CN2CCC(CCn3cccn3)CC2)c(C)o1` the Potency was inconclusive: 11.2 µM [inhibitor, partial curve, poor fit]. For `CCCS(=O)(=O)N1CCC2(CCC2OC)CC1` (configuration not stated), the Potency was “inactive”. In the case of `O=C(c1onc2ccccc12)N1CCC2(CCCNC2)C1` (configuration not stated), the Potency is reported as “inactive”. In the case of `O=C(CCS(=O)(=O)c1nc(-c2cccs2)cc(C(F)(F)F)n1)Nc1cc(Br)ccc1O`, the Potency is reported as inconclusive: 17.8 µM [inhibitor, single point]. For `O=C(C1CCCC1)N1CCN(c2nnc3c(Cl)cccn23)CC1`, the Potency was inconclusive: 1.58 µM [inhibitor, full curve]. With `CC(C)c1ccc(NC(=O)Cn2cc(S(=O)(=O)Cc3cccc(Cl)c3)c3ccccc32)cc1` the Potency was inconclusive: 17.8 µM [inhibitor, single point]. For `O=C(CCc1ccco1)N1CCC(C2CCN(Cc3cccc(F)c3F)CC2)C1` (configuration not stated), the Potency was inconclusive: 8.91 µM [inhibitor, partial curve]. With `CC(=O)N1CC[C@H](c2nc3ccc(C(F)(F)F)cc3[nH]2)C1` the Potency was “inactive”. In the case of `CCOC(=O)c1ccc(NC(=O)C(Cc2ccccc2)N2Cc3ccccc3C2=O)cc1` (configuration not stated), the Potency is reported as inconclusive: 17.8 µM [inhibitor, single point]. For `CCn1c(=O)c2sccc2n2c(CCCC(=O)N3CCN(c4cccc(Cl)c4)CC3)nnc12`, the Potency was inconclusive: 11.2 µM [inhibitor, single point]. For `COCCN(CCOC)CC[C@@H]1CC[C@H](O)[C@@H](C(=O)Nc2ccccc2)O1`, the Potency was active: 15.8 µM. In the case of `COc1ccc(CN2CCN(Cc3cc4ccccc4[nH]3)CC2CCO)c(C)c1C` (configuration not stated), the Potency is reported as active: 8.91 µM. For `Cc1ccc(NC(=O)Cn2nc3c(cc2=O)CCCCC3)c(Cl)c1`, the Potency was “inactive”. With `CC(C)CCN1CCC(N2CCN(S(=O)(=O)c3ccc(F)c(F)c3)CC2)C1=O` (configuration not stated) the Potency was inconclusive: 17.8 µM [inhibitor, single point]. With `Cc1ccc(S(=O)(=O)N(C)CC2CCOC2)cc1F` (configuration not stated) the activity, negative = inhibition was inactive: 21.4% [at 5.79 µM]. In the case of `CCCN1C(=O)Cc2ccccc2C1C(=O)NCc1ccc(Br)cc1` (configuration not stated), the Potency is reported as “inactive”. For `CC(C)CNC(=O)c1coc(COc2ccc3c(c2)C(c2ccccc2)N(C(=O)C(C)C)CC3)n1` (configuration not stated), the Potency was inconclusive: 1.12 µM [inhibitor, full curve]. For `CC(C)(Oc1nn(CC2CCOCC2)c2ccccc12)C(=O)NCc1ccccc1`, the Potency was inconclusive: 5.01 µM [inhibitor, partial curve, poor fit]. For `COC[C@@H]1[C@H](C(=O)N2CCN(c3ccccn3)CC2)CCC(=O)N1C`, the Potency was “inactive”. In the case of `O=C(NCCCn1ccnc1)c1cnc2c(c1)N(C(=O)CCc1ccccc1)CCC2`, the Potency is reported as “inactive”. For `O=C(C1CCC(Cn2c(=O)c3sccc3n(Cc3ccccc3)c2=O)CC1)N1CCCCC1` (configuration not stated), the Potency was inconclusive: 10 µM [inhibitor, partial curve, poor fit]. With `CCN(Cc1ccccc1)Cc1c(O)ccc2c(=O)c(-c3ccc(Cl)cc3)coc12` the Potency was inconclusive: 11.2 µM [inhibitor, single point]. In the case of `CN1C(=O)COC[C@@H]1[C@H](O)c1ccc(NC(=O)c2ccc(C(F)(F)F)cc2)cc1`, the Potency is reported as inconclusive: 0.316 µM [inhibitor, full curve, poor fit]. For `O=C(NCc1ccccc1Cl)c1cnc(N2CCOCC2)c2ccccc12`, the Potency was “inactive”. In the case of `COc1cccc(C(=O)NC(=NCCc2c[nH]c3ccc(OC)cc23)Nc2nc(C)cc(C)n2)c1`, the Potency is reported as inconclusive: 3.98 µM [inhibitor, single point].
